Measured values from PubChem BioAssay AID1345083 (National Center for Advancing Translational Sciences (NCATS), 2018).
The campaign covered roughly 94,000 compounds. About 6,200 (6.6%) were called active. This list was built around the results that the source calls inconclusive (neither active nor inactive); the mix of calls is not that of the screen. The call rests on the fitted dose curve; in most records, active means well fitted inhibition curve with a large enough effect; inconclusive means small, poorly fitted or top-dose-only effect; inactive means flat fitted curve, though single readings scatter. A potency beside an inconclusive call is a rough fit, not a confirmed value.

Test: Cytotoxic Profiling in HEK 293 Cell Line of Diverse Libraries Using Quantitative High-Throughput Screening; further: nearly all actives have a fitted effect of over 60% in size
Details: HEK 293 viability, ATP luminescence (CellTiter-Glo), 48-72 h; series mostly up to 115 µM
How it was run: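 CellTiter-Glo luminescence (cellular ATP) was read after 48 or 72 hr of compound exposure at 37 degree Celsius. Cells were HEK 293 plated at 250 cells/well.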
Potency means the concentration at half of the fitted maximal effect; tags describe the fitted curve by direction and shape.

Compound | Potency
CC1CCN(C[C@H]2CN3CC[C@H]2C[C@@H]3CNC(=O)Nc2ccsc2)CC1 | inactive
Cc1cc(-c2cc3c(cn2)CN(CC(C)C)CCN3)ccn1 | inconclusive: 112 µM [inhibitor, partial curve]
OCC1CN(c2ccncn2)CC12CCNCC2 (stereo not given) | inactive
c1ccc(O[C@H]2CNC3Cc4c([nH]c5ccccc45)C2C3)nc1 (stereo not given in full) | inconclusive: 89.1 µM [inhibitor, single point]
C=CCCOC(=O)N1C[C@H](C(=O)OCC)[C@H]2c3ccccc3N(CC3CC3)C(=O)[C@]21C | inconclusive: 31.6 µM [inhibitor, partial curve, poor fit]
Cc1cnc(CCN)n1CC1CC1 | inactive
Cc1nc(-c2ccc(F)cc2)cc([C@H]2CN3CC[C@H]2C[C@@H]3CNS(=O)(=O)Cc2ccccc2)n1 | active: 35.5 µM
CCOCCCNC(=O)N1[C@H]2CC[C@@H]1c1cnc(-c3ccccc3)nc1C2 | inconclusive: 31.6 µM [inhibitor, full curve, poor fit]
Cn1nc(-c2ccc3ccccc3c2)cc1[C@H]1CN2CC[C@H]1C[C@@H]2CNC(=O)Nc1cccc(C#N)c1 | inconclusive: 15.8 µM [inhibitor, full curve, poor fit]
CC(C)CN1Cc2ccccc2-n2ccnc2C12CCN(C(=O)C(C)C)CC2 | inconclusive: 44.7 µM [inhibitor, partial curve, poor fit]
O=C(NC1CC1)[C@H]1CN2CCC1C[C@@H]2Cn1cc(CSc2ccccc2)nn1 (stereo not given in full) | inactive
CCCS(=O)(=O)N1[C@H]2CC[C@@H]1c1cnc(-c3ccc(F)cc3)nc1C2 | inconclusive: 31.6 µM [inhibitor, partial curve, poor fit]
CN1CCCC(C(=O)N2C3CCC2CN(Cc2cccnc2)C3)C1 (stereo not given) | inactive
COCCNC(=O)[C@H]1CN2CCC1C[C@@H]2Cn1cc(C2(O)CCCCC2)nn1 (stereo not given in full) | inactive
CN1c2ncccc2CN(Cc2ccccn2)CC[C@H]1CO | inconclusive: 126 µM [inhibitor, single point]
Cc1nc(-c2ccc(F)cc2)cc([C@H]2CN3CC[C@H]2C[C@@H]3CNC(=O)C2CC2)n1 | inconclusive: 112 µM [inhibitor, partial curve, poor fit]
CCC(CC)c1cc([C@H]2CN3CC[C@H]2C[C@@H]3CNC(=O)C2CCC2)nc(-c2ccncc2)n1 | inactive
Cc1ccccc1-c1cnc2[nH]cc(CC(=O)N3CCN(C)CC3)c2c1 | inconclusive: 79.4 µM [inhibitor, partial curve]
COc1ccc(CNC[C@H]2C[C@@H]3CCN2C[C@@H]3c2cc(C3CCCCC3)nn2C)cc1 | active: 31.6 µM
CCC(CC)c1cc([C@H]2CN3CC[C@H]2C[C@@H]3CNC(=O)c2ccc(N(C)C)cc2)nc(-c2ccncc2)n1 | active: 20 µM
COc1cccc(Nc2cc3c(cn2)CN(C)CCN3C)c1 | inconclusive: 126 µM [inhibitor, single point]
COc1cc2c(cc1OCC1CC1)NC(=O)C21CCN(C(=O)c2cccc(O)c2)CC1 | inconclusive: 112 µM [inhibitor, partial curve]
CN1CCN(C(=O)Cc2c[nH]c3ncc(-c4ccc(CO)cc4)cc23)CC1 | inconclusive: 56.2 µM [inhibitor, partial curve, poor fit]

Compound | Potency
Cn1nc(-c2ccc3ccccc3c2)cc1[C@H]1CN2CC[C@H]1C[C@@H]2COC(=O)Nc1cccc(C(F)(F)F)c1 | active: 79.4 µM
O=C(Nc1ccc2n(c1=O)C[C@H]1C[C@@H]2CN(C(=O)Nc2ccccc2)C1)c1ccncc1 | inactive
Cc1cccc(NC(=O)N2[C@H]3CC[C@@H]2c2cnc(-c4ccccc4)nc2C3)c1 | active: 39.8 µM
CCOC(=O)[C@H]1CN(C(=O)N2CCOCC2)[C@]2(C)C(=O)N(CC(=O)N(C)C)c3ccccc3[C@H]12 | inconclusive: 39.8 µM [inhibitor, single point]
Cc1nc(-c2ccco2)cc([C@H]2CN3CC[C@H]2C[C@@H]3CNCc2ccccc2)n1 | inconclusive: 70.8 µM [inhibitor, partial curve, poor fit]
Cc1ncc2c(n1)C[C@@H]1CC[C@H]2N1S(=O)(=O)c1ccc2c(c1)OCCO2 | inactive
O=C(Nc1ccccc1)N1C[C@@H]2C[C@H](C1)c1c(-c3ccccc3F)ccc(=O)n1C2 | inactive
COc1cc2c(cc1OCc1ccccc1)NC(=O)C21CCN(c2nc(C)cnc2C)CC1 | active: 35.5 µM
COc1ccc(C2=NOC3(CCN(Cc4cc(C)on4)C3)C2)cc1 (stereo not given) | inconclusive: 112 µM [inhibitor, single point]
COc1cc2c(cc1CCc1ccccc1)N(C(=O)c1c[nH]c3ccccc13)CC21CCN(C(C)=O)CC1 | active: 25.1 µM
CCC1(N2CCN(C(=O)Cc3ccccc3OC)CC2)CCN(C(=O)NC)C1 (stereo not given) | inactive
O=S1(=O)NC2(CCN(Cc3ccc(Cl)s3)C2)COc2ccncc21 (stereo not given) | inconclusive: 89.1 µM [inhibitor, single point]
COc1cc2c(cc1OCC1CC1)NC(=O)C21CCN(C(=O)CCc2cccnc2)CC1 | inactive
CSc1ccc(-c2ccc(=O)n3c2[C@@H]2C[C@@H](CN(S(C)(=O)=O)C2)C3)cc1 | inactive
COC1C(=O)N(c2cccc(F)c2)C12CCNCC2 (stereo not given) | inactive
O=C1CC2CCN(Cc3cccnc3)CC2CCN1 (stereo not given) | inactive
O=C1Nc2ccccc2C12CCN(CC1CCCCC1)CC2 | inconclusive: 112 µM [inhibitor, single point]
CCCCc1cn(C[C@H]2CC3CCN2C[C@@H]3C(=O)NCc2ccccc2)nn1 (stereo not given in full) | inactive
CCOCC(=O)N1CCC2(CC1)c1nccn1-c1ccccc1CN2C | inactive
O=C(Cc1ccccc1)N1[C@H]2CC[C@@H]1c1cnc(-c3ccc(F)cc3)nc1C2 | active: 28.2 µM
Cc1ccc(C(=O)N2[C@H]3CC[C@@H]2c2cnc(C)nc2C3)c(C)c1 | inactive
Cc1cc(C(=O)N2[C@H]3CC[C@@H]2c2cnc(-c4ccc(F)cc4)nc2C3)nn1C | inconclusive: 63.1 µM [inhibitor, partial curve, poor fit]
